Among the data in article PMC9911399, “Two distinct binding modes provide the RNA-binding protein RbFox with extraordinary sequence specificity” are binding signal values, retold here.

T1: RBFOX1 RRM (Homo sapiens, UniProt Q9NWB1 109-208)
T1 sequence: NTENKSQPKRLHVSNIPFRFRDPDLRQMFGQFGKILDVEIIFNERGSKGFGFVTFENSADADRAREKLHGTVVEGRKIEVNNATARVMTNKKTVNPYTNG

B1: UUGUGGC (DNA:RNA)
RNA: GGGAGACCGGAAUUCAGAUUGUCCUUGUGGCUUAAAUCCCGUCGUAGCCACCA
DNA 1: CAATCTGAATTCCGGTCTCCC
DNA 2: TGGTGGCTACGACGGGATT
B2: ACGCCGG (DNA:RNA)
RNA: B1 RNA with U25A, U26C, U28C, G29C, C31G
DNA 1: CAATCTGAATTCCGGTCTCCC
DNA 2: TGGTGGCTACGACGGGATT
B3: UACUCUG (DNA:RNA)
RNA: B1 RNA with U26A, G27C, G29C, G30U, C31G
DNA 1: CAATCTGAATTCCGGTCTCCC
DNA 2: TGGTGGCTACGACGGGATT
B4: GGAAAGU (DNA:RNA)
RNA: B1 RNA with U25G, U26G, G27A, U28A, G29A, C31U
DNA 1: CAATCTGAATTCCGGTCTCCC
DNA 2: TGGTGGCTACGACGGGATT
B5: AUGAAUG (DNA:RNA)
RNA: B1 RNA with U25A, U28A, G29A, G30U, C31G
DNA 1: CAATCTGAATTCCGGTCTCCC
DNA 2: TGGTGGCTACGACGGGATT
B6: AUAACGC (DNA:RNA)
RNA: B1 RNA with U25A, G27A, U28A, G29C
DNA 1: CAATCTGAATTCCGGTCTCCC
DNA 2: TGGTGGCTACGACGGGATT
B7: GGUUUGG (DNA:RNA)
RNA: B1 RNA with U25G, U26G, G27U, G29U, C31G
DNA 1: CAATCTGAATTCCGGTCTCCC
DNA 2: TGGTGGCTACGACGGGATT
B8: UGCAAUA (DNA:RNA)
RNA: B1 RNA with U26G, G27C, U28A, G29A, G30U, C31A
DNA 1: CAATCTGAATTCCGGTCTCCC
DNA 2: TGGTGGCTACGACGGGATT
B9: AGCGCAC (DNA:RNA)
RNA: B1 RNA with U25A, U26G, G27C, U28G, G29C, G30A
DNA 1: CAATCTGAATTCCGGTCTCCC
DNA 2: TGGTGGCTACGACGGGATT
B10: GGCGAUC (DNA:RNA)
RNA: B1 RNA with U25G, U26G, G27C, U28G, G29A, G30U
DNA 1: CAATCTGAATTCCGGTCTCCC
DNA 2: TGGTGGCTACGACGGGATT
B11: CUUACCG (DNA:RNA)
RNA: B1 RNA with U25C, G27U, U28A, G29C, G30C, C31G
DNA 1: CAATCTGAATTCCGGTCTCCC
DNA 2: TGGTGGCTACGACGGGATT
B12: UAUACAC (DNA:RNA)
RNA: B1 RNA with U26A, G27U, U28A, G29C, G30A
DNA 1: CAATCTGAATTCCGGTCTCCC
DNA 2: TGGTGGCTACGACGGGATT
B13: UCGUUGA (DNA:RNA)
RNA: B1 RNA with U26C, G29U, C31A
DNA 1: CAATCTGAATTCCGGTCTCCC
DNA 2: TGGTGGCTACGACGGGATT
B14: AUGCAUC (DNA:RNA)
RNA: B1 RNA with U25A, U28C, G29A, G30U
DNA 1: CAATCTGAATTCCGGTCTCCC
DNA 2: TGGTGGCTACGACGGGATT
B15: UGGUGAU (DNA:RNA)
RNA: B1 RNA with U26G, G30A, C31U
DNA 1: CAATCTGAATTCCGGTCTCCC
DNA 2: TGGTGGCTACGACGGGATT
B16: CUUACAA (DNA:RNA)
RNA: B1 RNA with U25C, G27U, U28A, G29C, G30A, C31A
DNA 1: CAATCTGAATTCCGGTCTCCC
DNA 2: TGGTGGCTACGACGGGATT
B17: UAAUAUA (DNA:RNA)
RNA: B1 RNA with U26A, G27A, G29A, G30U, C31A
DNA 1: CAATCTGAATTCCGGTCTCCC
DNA 2: TGGTGGCTACGACGGGATT
B18: AGCGGUC (DNA:RNA)
RNA: B1 RNA with U25A, U26G, G27C, U28G, G30U
DNA 1: CAATCTGAATTCCGGTCTCCC
DNA 2: TGGTGGCTACGACGGGATT
B19: GGGAGGG (DNA:RNA)
RNA: B1 RNA with U25G, U26G, U28A, C31G
DNA 1: CAATCTGAATTCCGGTCTCCC
DNA 2: TGGTGGCTACGACGGGATT
B20: AACCUGA (DNA:RNA)
RNA: B1 RNA with U25A, U26A, G27C, U28C, G29U, C31A
DNA 1: CAATCTGAATTCCGGTCTCCC
DNA 2: TGGTGGCTACGACGGGATT
B21: AGAAGAG (DNA:RNA)
RNA: B1 RNA with U25A, U26G, G27A, U28A, G30A, C31G
DNA 1: CAATCTGAATTCCGGTCTCCC
DNA 2: TGGTGGCTACGACGGGATT
B22: GUCUCGC (DNA:RNA)
RNA: B1 RNA with U25G, G27C, G29C
DNA 1: CAATCTGAATTCCGGTCTCCC
DNA 2: TGGTGGCTACGACGGGATT
B23: GGAAUCG (DNA:RNA)
RNA: GGGAGACCGGAAUUCAGAUUGUCCGGAAUCGUUAAAUCCCGUCGUAGCCACCA
DNA 1: CAATCTGAATTCCGGTCTCCC
DNA 2: TGGTGGCTACGACGGGATT
B24: AGCCAGU (DNA:RNA)
RNA: B23 RNA with G25A, A27C, A28C, U29A, C30G, G31U
DNA 1: CAATCTGAATTCCGGTCTCCC
DNA 2: TGGTGGCTACGACGGGATT
B25: UGGCCGC (DNA:RNA)
RNA: B1 RNA with U26G, U28C, G29C
DNA 1: CAATCTGAATTCCGGTCTCCC
DNA 2: TGGTGGCTACGACGGGATT
B26: AGGGCUC (DNA:RNA)
RNA: B1 RNA with U25A, U26G, U28G, G29C, G30U
DNA 1: CAATCTGAATTCCGGTCTCCC
DNA 2: TGGTGGCTACGACGGGATT
B27: CUCCUUU (DNA:RNA)
RNA: B23 RNA with G25C, G26U, A27C, A28C, C30U, G31U
DNA 1: CAATCTGAATTCCGGTCTCCC
DNA 2: TGGTGGCTACGACGGGATT
B28: UGGAAGU (DNA:RNA)
RNA: B1 RNA with U26G, U28A, G29A, C31U
DNA 1: CAATCTGAATTCCGGTCTCCC
DNA 2: TGGTGGCTACGACGGGATT
B29: UGUAUGG (DNA:RNA)
RNA: B23 RNA with G25U, A27U, C30G
DNA 1: CAATCTGAATTCCGGTCTCCC
DNA 2: TGGTGGCTACGACGGGATT
B30: CGUCGUG (DNA:RNA)
RNA: B23 RNA with G25C, A27U, A28C, U29G, C30U
DNA 1: CAATCTGAATTCCGGTCTCCC
DNA 2: TGGTGGCTACGACGGGATT
B31: GAUCGAG (DNA:RNA)
RNA: B23 RNA with G26A, A27U, A28C, U29G, C30A
DNA 1: CAATCTGAATTCCGGTCTCCC
DNA 2: TGGTGGCTACGACGGGATT

Where a chain is given by its changes, count along the chain named. The list shows a part of the results.

The test addresses T1, RBFOX1 RRM. The test is described as follows: EMSA; HiTS-Eq, 1 nM pool, 10 min; buffer printed only for the single-RNA assays: 10 mM Tris pH 7.5, 150 mM NaCl, 3.4 mM EDTA, 0.001% NP-40, 30 C. Particulars: tags: His6 N-terminal (pET28a); label: 5' 32P. The gist of the method:
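A pool of RNA with 7 randomized nucleotides, 5′-radiolabelled and with DNA-annealed flanks, was equilibrated at 1 nM for 10 min in 50 µL with purified RbFox RRM, wild type or mutant, across increasing protein concentrations. Free RNA was separated by 8% native PAGE, excised, reverse-transcribed, barcoded by PCR and sequenced. Relative association constants were obtained from read-count changes of each RNA species versus the control reaction and normalised to the cognate motif.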
(In general: In EMSA bound probe runs differently from free probe, usually more slowly.)
As for B1, the binding signal was 0.0105 KA relative to UGCAUGU.

With B2, the binding signal was 0.00777 KA relative to UGCAUGU. With B3, the binding signal was 0.0127 KA relative to UGCAUGU. As for B4, the binding signal was 0.0146 KA relative to UGCAUGU.

As to B5, the binding signal is 0.0232 KA relative to UGCAUGU. With B6, the binding signal is 0.000892 KA relative to UGCAUGU. For the molecule B7, the binding signal was 0.0258 KA relative to UGCAUGU. As for B8, the binding signal is 0.00605 KA relative to UGCAUGU. Consider B9, for which the binding signal was 0.00865 KA relative to UGCAUGU. Turning to B10, the binding signal is 0.0111 KA relative to UGCAUGU. With B11 the figure was 0.00206 KA relative to UGCAUGU; with B12, 0.000527 KA relative to UGCAUGU. On to B13, for which the binding signal is 0.019 KA relative to UGCAUGU. With B14 the figure was 0.015 KA relative to UGCAUGU; with B15, 0.0192 KA relative to UGCAUGU. B16: the binding signal was 0.000713 KA relative to UGCAUGU.

With B17, the binding signal is 0.00451 KA relative to UGCAUGU. For the molecule B18, the binding signal was 0.018 KA relative to UGCAUGU. For B19, the binding signal was 0.0121 KA relative to UGCAUGU. In the case of B20, the binding signal was 0.00307 KA relative to UGCAUGU. B21: the binding signal is 0.0102 KA relative to UGCAUGU.

Take B22: the binding signal is 0.0149 KA relative to UGCAUGU. In the case of B23, the binding signal was 0.0216 KA relative to UGCAUGU.

Consider B24, for which the binding signal was 0.0119 KA relative to UGCAUGU. As for B25, the binding signal is 0.0225 KA relative to UGCAUGU. With B26 the figure was 0.0217 KA relative to UGCAUGU; with B27, 0.00632 KA relative to UGCAUGU; with B28, 0.0205 KA relative to UGCAUGU. In the case of B29, the binding signal is 0.0097 KA relative to UGCAUGU. Under B30 stands 0.0144 KA relative to UGCAUGU. For the molecule B31, the binding signal is 0.0162 KA relative to UGCAUGU.
